# In PubChem BioAssay AID686971 (National Center for Advancing Translational Sciences (NCATS), 2013):
# Screen size: about 360,000 compounds; about 7,500 (2.1%) were called active. Inconclusive means that the source gave no clear call. Such entries were picked first, then a sample of the others. The call rests on the fitted dose curve; in most records, active means well fitted cell-killing curve with a large enough effect; inconclusive means small, poorly fitted or top-dose-only effect, or effect the other way, or another doubt; inactive means no such curve, though single readings can be large or run the other way. No potency is given beside an inconclusive call; the fits are too rough.
# Test: qHTS for induction of synthetic lethality in tumor cells producing 2HG: qHTS for the HT-1080-IDH1KD cell line;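 on activity, negative = toxicity: 0% = DMSO wells and -100% = cell-free medium wells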
# Details: HT-1080 IDH1 knockdown viability, ATP luminescence, 48 h; activity, negative = toxicity: at 46.1 µM (top of the series) unless noted
# Method in brief: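 % activity derives from luminescence (CellTiter-Glo), normalised to DMSO and no-cell wells. HT-1080-IDH1KD cells, 750/well, had 48 h compound exposure at 37 °C.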
# Potency means the concentration at half of the fitted maximal effect; tags describe the fitted curve by direction and shape.
SMILES,Potency,"activity, negative = toxicity"
COc1ccc(Cc2c(-c3cccc(Cl)c3)nc3c(C)cc(Br)cn23)c(C)c1,active: 23.1 µM,
Cc1[nH]nc(-c2ccc(O)cc2O)c1Oc1ccccc1,"inconclusive [cytotoxic, single point]",
CCS(=O)(=O)c1ccc(N=Nc2ccc(O)c3ncccc23)c(OC)c1,active: 5.17 µM,
Cc1[nH]c(=O)c(C#N)c(C)c1[N+](=O)[O-],inactive,
CCc1cccc(NC(=O)c2ccc(Br)o2)c1,inactive,
CCOc1ccc(S(=O)(=O)NC2CCCCC2C)cc1 (configuration not stated),inactive,
O=C(COc1ccccc1)NC(=S)Nc1ccc2c3c(cccc13)CC2,"inconclusive [cytotoxic, single point]",
CC(/C=C1\SC(=S)N(CCCC(=O)Nc2ccc(C(=O)O)cc2)C1=O)=C\c1ccccc1,"inconclusive [cytotoxic, single point]",
CCc1nc2ccc(C(=O)NCCNC(C)=O)cn2c1N(CCC(C)C)CCN(C)C,inactive,
CC(=O)Oc1ccc(N(C(C)=O)S(=O)(=O)c2ccc(C)cc2)c2ccccc12,"inconclusive [cytotoxic, single point]",
CCOC(=O)c1cccc(NC(=O)Nc2cc(OC)ccc2OC)c1,"inconclusive [cytotoxic, single point]",
Cc1onc(-c2c(F)cccc2Cl)c1C(=O)Nc1sc2c(c1C(N)=O)CCC2,active: 14.1 µM,
CCCSc1nnc(NC(=O)CSc2nc3[nH]c(=O)cc(O)c3s2)s1,inactive,
CC(Nc1nc(N2CCNCC2)nc2ccccc12)c1ccccc1 (configuration not stated),active: 14.6 µM,
Oc1ccc(-c2n[nH]c(C(F)(F)F)c2-c2ccccc2)c(O)c1,active: 10.3 µM,
N#C/C(=N\Nc1cccc(Cl)c1)C(=O)c1ccccc1,active: 23.1 µM,
COc1ccc(C(=O)NC2(C(F)(F)F)NC(=O)N(CCCc3ccccc3)C2=O)cc1OC (configuration not stated),inactive,
Cc1csc2c(N3CCN(C(=O)Nc4ccc(Cl)c(Cl)c4)CC3)ncnc12,"inconclusive [cytotoxic, single point]",
Brc1ccc(C2=Nn3c(nnc3-c3n[nH]c4c3CCC4)SC2)cc1,active: 0.651 µM,
Cc1ccc(N(CC(O)Cn2c3ccccc3c3ccccc32)S(C)(=O)=O)cc1 (configuration not stated),"inconclusive [cytotoxic, single point]",
O=C(CN1C(=O)NC2(CCCC2)C1=O)N1CCCSC1=Nc1ccccc1,"inconclusive [cytotoxic, single point]",
O=C(CN1CCN(Cc2ccc3c(c2)OCO3)CC1)c1c[nH]c2ccccc12,"inconclusive [cytotoxic, partial curve]",
COc1ccc(C(=S)N2CCN(c3cccc(Cl)c3)CC2)c(OC)c1,"inconclusive [cytotoxic, full curve]",
CCOc1ccc(-c2csc(/C(C#N)=C\c3ccc(O)c([N+](=O)[O-])c3)n2)cc1,"inconclusive [cytotoxic, partial curve]",

SMILES,Potency,"activity, negative = toxicity"
Cc1ccccc1NC1=C/C(=N\S(=O)(=O)c2cccs2)c2ccccc2C1=O,active: 7.31 µM,
O=C(O)C1CC(c2ccccc2)=NO1 (configuration not stated),inactive,
CCn1c2ccccc2c2cc(NC(=O)CNCc3ccccc3OC)ccc21,active: 6.51 µM,
CCOc1ccc(NC(=O)CSc2nc3ccccc3nc2N2CC(C)OC(C)C2)cc1 (configuration not stated),inactive,
COc1cccc(NC(=O)Cc2c(C(=O)O)[nH]c3ccccc23)c1,,inconclusive: 27.7%
CCN(CC)CCCN(C(C)=O)c1nc(-c2cc(OC)ccc2OC)cs1,"inconclusive [cytotoxic, single point]",
CC1(Cc2ccc3c(c2)OCO3)C(=O)Nc2c(Cl)ccc(Cl)c21 (configuration not stated),"inconclusive [cytotoxic, single point]",
COc1cccc(N2CCN(C(=O)CCCCCNc3nc(=S)[nH]c4ccccc34)CC2)c1,"inconclusive [cytotoxic, single point]",
CCOc1ccc(NC(=S)NNC(=S)Nc2cccc(C(F)(F)F)c2)cc1,inactive,
NS(=O)(=O)c1ccc(NC2=CC(=O)C(=O)c3ccccc32)cc1,"inconclusive [cytotoxic, single point]",
O=c1oc(CCCO)cc2ccc(/C=C/c3cccc([N+](=O)[O-])c3)cc12,inactive,
Cc1nc2ccccc2c2c1CC(C(C)(Cl)Br)O2 (configuration not stated),"inconclusive [cytotoxic, partial curve]",
CC1(C(=O)NCc2ccc(C(F)(F)F)cc2)CCN1C1Cc2ccccc2C1 (configuration not stated),"inconclusive [cytotoxic, single point]",
NS(=O)(=O)c1cccc(NC(=O)c2cccc(-c3ccc(O)cc3)c2)c1,"inconclusive [cytotoxic, partial curve]",
O=Cc1cc(N=Nc2ccccc2Cl)ccc1O,"inconclusive [cytotoxic, partial curve]",
O=C(COc1ccc(Cl)cc1Cl)c1ccc[nH]1,inactive,
Cc1ccc(S(=O)(=O)N2CCOCC2)cc1NC(=O)c1cc(-c2ccccn2)nc2ccccc12,"inconclusive [cytotoxic, partial curve]",
CN(Cc1ccccc1)C1=CC(=[N+]2CCCC2)CC(C)(C)C1,"inconclusive [cytotoxic, single point]",
CC(=O)NC(c1cccc(F)c1)c1nc(-c2cc3ccccc3o2)cs1 (configuration not stated),"inconclusive [cytotoxic, single point]",
C=C1CCC[C@]2(C)C[C@H]3OC(=O)C(CN(Cc4ccc(OC)c(OC)c4)CC(C)O)[C@H]3CC12 (some centres not stated),"inconclusive [cytotoxic, single point]",
CC(C)Nc1nc(Nc2ccc(Cl)cc2F)c2sccc2n1,"inconclusive [cytotoxic, partial curve]",
CC(=O)N1CCN(Cc2nc3ccc(Cl)cc3n2CCO)CC1,inactive,
Cc1ccc(S(=O)(=O)N2CCN(C(=O)COC(=O)c3cc([N+](=O)[O-])ccc3NCCO)CC2)c(C)c1,"inconclusive [cytotoxic, single point]",
